Results: publication PMC4336329 (PLoS ONE, 2015)
Among all 310,000 compounds or so, about 14,000 (4.5%) showed an effect of 50% or more. Effects have a minus sign here. The list shows a part of the results.

Biological target: human ether-à-go-go-related gene (hERG) potassium channel (human, UniProt Q12809)
Experiment: primary screen, population patch clamp on CHO cells stably expressing hERG
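Also: peak tail current of the secondary pulse compared with the same well before compound.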

Chain of human ether-à-go-go-related gene (hERG) potassium channel (Q12809 whole entry, looked up): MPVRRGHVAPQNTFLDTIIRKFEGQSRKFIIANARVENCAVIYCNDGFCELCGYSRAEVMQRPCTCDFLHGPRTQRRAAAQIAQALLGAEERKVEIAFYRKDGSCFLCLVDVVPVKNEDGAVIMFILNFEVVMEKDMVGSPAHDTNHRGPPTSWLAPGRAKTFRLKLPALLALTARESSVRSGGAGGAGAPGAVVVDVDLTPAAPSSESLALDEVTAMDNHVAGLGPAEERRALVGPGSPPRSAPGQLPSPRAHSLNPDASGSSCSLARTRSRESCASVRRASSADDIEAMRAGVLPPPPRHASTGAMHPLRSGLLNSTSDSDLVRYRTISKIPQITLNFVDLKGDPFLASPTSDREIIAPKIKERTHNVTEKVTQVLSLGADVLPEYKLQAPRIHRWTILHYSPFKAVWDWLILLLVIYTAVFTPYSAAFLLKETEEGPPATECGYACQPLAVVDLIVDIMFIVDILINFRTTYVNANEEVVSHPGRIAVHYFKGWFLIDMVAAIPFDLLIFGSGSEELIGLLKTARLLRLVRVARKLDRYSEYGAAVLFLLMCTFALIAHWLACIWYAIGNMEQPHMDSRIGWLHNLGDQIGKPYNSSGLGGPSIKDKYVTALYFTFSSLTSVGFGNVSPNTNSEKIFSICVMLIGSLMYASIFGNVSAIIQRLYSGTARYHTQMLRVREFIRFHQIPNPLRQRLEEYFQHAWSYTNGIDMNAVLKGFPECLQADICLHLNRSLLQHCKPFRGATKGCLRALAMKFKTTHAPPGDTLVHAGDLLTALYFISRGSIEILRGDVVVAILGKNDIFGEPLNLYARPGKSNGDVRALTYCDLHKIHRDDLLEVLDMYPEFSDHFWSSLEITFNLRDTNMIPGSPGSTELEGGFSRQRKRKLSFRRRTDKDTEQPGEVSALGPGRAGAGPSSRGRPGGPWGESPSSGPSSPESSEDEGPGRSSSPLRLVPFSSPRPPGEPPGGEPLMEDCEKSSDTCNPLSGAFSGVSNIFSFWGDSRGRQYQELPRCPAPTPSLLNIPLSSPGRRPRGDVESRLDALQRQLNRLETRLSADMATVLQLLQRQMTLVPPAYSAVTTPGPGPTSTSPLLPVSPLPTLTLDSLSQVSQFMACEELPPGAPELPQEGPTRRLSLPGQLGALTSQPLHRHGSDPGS

SMILES	hERG current change (%, negative = inhibition) at 10uM
Cc1ccc(NC(=S)Nc2ccccn2)cc1C	6.99%
CC(C)Cn1c(NCCN(C)C)nc2c1c(=O)[nH]c(=O)n2C	10.1%
N#CCCn1cc(/C=N/N=C2\NC(=O)C(CC(=O)O)S2)c(-c2ccc(F)cc2)n1 (stereo not shown)	10.9%
CC(/C=N/NC(=O)c1ccccc1F)c1ccccc1 (stereo not shown)	14.8%
COc1ccccc1OCC(=O)NNC(=O)C(=O)N1CCCC1	16.3%
COC(=O)c1ccc(N2CCN(S(=O)(=O)c3c(C)cc(C)cc3C)CC2)c([N+](=O)[O-])c1	21.4%
Cc1ccc(C(=O)NC2CCN(CCCC(=O)c3ccc(F)cc3)CC2)cc1	-74%
CC(C(=O)Nc1ccc2c(c1)OCO2)c1ccc([N+](=O)[O-])cc1 (stereo not shown)	-8.75%
O=C(C#Cc1ccccc1)c1ccco1	5.83%
COc1ccccc1NC(=O)Cn1nc(C(F)(F)F)c2c1CCCC2	-5.47%
COc1cc(/C=N/NC(N)=O)ccc1OC(=O)c1cccs1	-20.9%
CC1(C)CC(=O)C(C=NCC2CCN(C(=O)Cc3ccccc3)CC2)=C(O)C1	-6.65%
CCCN(CC1CC1)C(=O)CSc1nnc(-c2cc(-c3cccs3)nc3ccccc23)o1	-5.05%
O=C(CNC(=O)c1ccccc1Br)NCCSc1ccc(Br)cc1	-35.1%
O=C(Cc1ccc(Cl)cc1)NCCCNC(=O)c1cccnc1	28.5%
O=C(O)c1cn[nH]c1-n1cnnn1	-9.46%
COCCN1C(=O)C(CC(=O)Nc2ccccc2)SC1=Nc1ccc(OC)cc1 (stereo not shown)	3.45%
CCC(C)N(C(=O)c1csnn1)C(C(=O)NCc1ccc(F)cc1)c1ccccc1 (stereo not shown)	0.665%
CCOC(=O)C1=C(CSCC(=O)OC)NC(=O)NC1c1cc(C)ccc1C (stereo not shown)	-4.23%
COc1cccc2c3c(c(=O)[nH]c12)CCC(C)(C)O3	5.53%
O=C(c1ccoc1)N1CCCC(Nc2ccc(F)c(F)c2)C1 (stereo not shown)	10.9%
CC1(C)CC(=O)c2cc(OCC(=O)N3CCOCC3)ccc2O1	-0.981%

SMILES	hERG current change (%, negative = inhibition) at 10uM
O=C(Oc1ccc(=O)n(-c2ccccc2)n1)c1ccccc1	-6.05%
CCCCn1c(/N=C/c2cc(OC)ccc2O)nc2ccccc21	5.05%
Cc1csc(NC(=O)CSc2nnc(NC(=O)COc3ccc(Cl)cc3)s2)n1	31.5%
CCOC(=O)N1CCN(C(=O)CSc2nc3c(cnn3-c3ccc(Cl)cc3)c(=O)[nH]2)CC1	-8.66%
COC(=O)C1=CN(c2ccc(OC)cc2)C=C(C(=O)OC)C1c1cccc(F)c1	10.6%
O=C(NCc1ccccc1F)c1ccncc1	12.3%
CN1CCN(c2oc(-c3ccco3)nc2S(=O)(=O)c2ccccc2)CC1	-37.9%
COc1ccc(C)cc1NC(=O)CCC(=O)Nc1nnc(C(F)(F)F)s1	25.1%
O=C(Nc1ccc(F)cc1)C(c1ccccc1)N1CCN(S(=O)(=O)c2c(F)cccc2F)CC1 (stereo not shown)	-8.26%
CCN(Cc1ccccc1)Cc1nc(CCc2ccccc2)no1	-1.65%
CN(C)C(=O)Oc1ccc[n+](C)c1.[Br-]	-14.7%
Cc1csc(OCC(=O)Nc2ccc(C)c(C)c2)n1	0.352%
CN(C)NC(=S)NC1CCS(=O)(=O)C1 (stereo not shown)	19.1%
Cc1ccc(NC(=O)CCC(=O)NNC(=O)COc2ccccc2)cc1C	16.7%
COC(=O)c1ccc(NC(=O)CCN2C(=O)C3C4CCC(C4)C3C2=O)cc1 (stereo not shown)	-5.16%
Cc1cc(C)nc(-n2nc(C)c(C3(O)C(=O)Nc4ccccc43)c2N)n1 (stereo not shown)	3.35%
O=C1c2ccccc2C(=O)N1CCc1nc2ccccc2c(=O)n1Cc1ccco1	-61.8%
O=S(=O)(c1ccccc1)N1CCN(C(=S)Nc2ccccc2)CC1	5.75%
COc1cc(NC(=O)c2cccc(C)c2)c(OC)cc1NC(=O)CN1CCOCC1	-3.88%
NC(=S)N=Nc1c(O)n(CCCl)c2ccccc12	19.5%
CC(=O)Nc1ccc(CC(=O)N2CCN(Cc3ccccc3)CC2)cc1	9.01%
Cc1cc(C)n2cc(CSc3ccccn3)nc2n1	13.6%

SMILES	hERG current change (%, negative = inhibition) at 10uM
Cc1cc(C)n(-c2ccn(Cc3ccc(Cl)cc3Cl)c(=O)n2)n1	5.39%
CCCN(CC(=O)Nc1ccccc1C)C(=O)CCCc1c[nH]c2ccccc12	-1.8%
CN(Cc1nc(-c2cccs2)no1)CC1(N2CCOCC2)CCCCC1	-24.2%
COc1cc(N2CN=c3s/c(=C\c4ccccn4)c(=O)n3C2)cc(OC)c1OC	-9.45%
CCC(C)Nc1nc(-c2c[nH]c3ccccc23)cs1 (stereo not shown)	-12.9%
Cc1ccsc1/C=C(\C#N)C(=O)NCCCN1CCOCC1	-10.6%
Cc1ccc(NC2CCCN(C(=O)CCC3=NNC(=O)CC3)C2)cc1C (stereo not shown)	-18.3%
C=CCN(C(=O)CCC(=O)Nc1cc(C)on1)C(C(=O)NC(C)(C)C)c1cccc(OC)c1OC (stereo not shown)	15.3%
CC1(C)CC(=O)C=C(c2cccc3c2oc2ccccc23)C1	-2.67%
CC1(C)C(=O)Nc2ccccc2N1C(=O)COC(=O)CNS(=O)(=O)c1ccc(F)c(F)c1F	-6.15%
COc1ccccc1NS(=O)(=O)c1ccc(N/N=C/C=C/c2ccccc2[N+](=O)[O-])c([N+](=O)[O-])c1	9.59%
CCOC(=O)C1CCN(C(=O)Nc2ccc(OC)c(OC)c2)CC1	1.86%
c1cc(C2CCCCC2)ccc1Oc1nc(N2CCOCC2)nc(N2CCOCC2)n1	4.43%
Cc1ccc(-c2c3c(nc4sc(C(N)=O)c(N)c24)CCC3)cc1	17.7%
COc1ccccc1N1CCN(C(=O)c2cccc(N3C(=O)NC4CC3(C)Oc3ccccc34)c2)CC1 (stereo not shown)	-4.9%
CCN(CC)S(=O)(=O)c1ccc(Cl)c(NC(C)=O)c1	4.2%
O=C(NCc1ccc(Cl)cc1)c1cc(-c2cccs2)on1	-4.61%
Cc1cccc(NC(=S)NC(=O)c2cc(-c3ccccc3)nc3ccccc23)c1	15.9%
CCOc1ccc(OCC)c(S(=O)(=O)N2CCC(C)CC2)c1	-29.4%
Cc1cc(C(=O)CCC(=O)NCC2COc3ccccc3O2)c(C)s1 (stereo not shown)	-24.4%
O=C(CSc1nnc(-c2cc3ccccc3cc2O)n1Cc1ccco1)N1CCc2ccccc2C1	0.619%
Br.COCCNc1nc2ccccc2n1CC(=O)c1ccc(OC)c(OC)c1	-1.21%

SMILES	hERG current change (%, negative = inhibition) at 10uM
Cc1cc(C)nc(NC2=NCCN2C(=S)Nc2ccc(C)c(C)c2)n1	6.2%
O=c1[nH]c2ccccc2c2oc(CCl)nc12	2.65%
COc1ccc(OC)c(Nc2nc(C3CC3)nc3c2nnn3Cc2ccccc2)c1	22%
CCN(CCCNC(=O)Cn1ncc2c([nH]c3ccc(C)cc32)c1=O)c1ccccc1	19%
COC(=O)C(OC(=O)c1ccccc1)C(C)Br (stereo not shown)	-16.2%
COCCCN1C(=O)C(=O)/C(=C(/O)c2ccc(OC)cc2C)C1c1cccnc1 (stereo not shown)	4.23%
COc1cccc(OCCOc2ccccc2[N+](=O)[O-])c1	8.27%
O=c1c2cc(Cl)ccc2nc(-c2ccccc2)n1O	15.7%
CCOC(=O)c1nnc(-c2ccccc2)nc1NC	-4%
O=C(O)CN(c1cccc(C(F)(F)F)c1)S(=O)(=O)c1ccccc1	22.8%
CCOC(=O)CSc1nnc(Cc2ccccc2)n1Cc1ccco1	2.92%
CCOC(=O)C(Cc1ccc(NC(=O)/C(=C/c2ccccc2)NC(=O)c2ccccc2)cc1)N1C(=O)c2ccccc2C1=O (stereo not shown)	13.8%
O=C(COc1ccccc1C(=O)NCC1CCCO1)Nc1ccc(Br)cc1 (stereo not shown)	-11.6%
O=C(CSc1nc2ccccc2o1)N1CCN(S(=O)(=O)c2ccc3ccccc3c2)CC1	23.5%
COc1cc(/C=N/NC(=O)CCn2nc(C)cc2C)ccc1O	26.9%
O=c1c(-c2ccc3c(c2)OCCO3)coc2cc(O)cc(O)c12	-9.23%
O=c1[nH]nc(Sc2ncnc3sccc23)n1CCc1ccccc1	-18.3%
Cl.O=C(Nc1cccc(C(F)(F)F)c1)c1cccnc1NCCO	-40.4%
O=C(O)CC(c1ccccc1)N1C(=O)c2ccccc2C1=O (stereo not shown)	0.532%
COC(=O)c1sccc1NC(=O)c1cc(C)on1	4.01%
Cc1c(CN2CCC(CO)(CCOc3ccccc3)CC2)c(=O)n(-c2ccccc2)n1C	-5.7%
O=[N+]([O-])c1cccc(S(=O)(=O)c2ccc(NCCO)c([N+](=O)[O-])c2)c1	-51%
